The values below come from ChEMBL document CHEMBL4888484, “Replenishing the malaria drug discovery pipeline: Screening and hit evaluation of the MMV Hit Generation Library 1 (HGL1) against asexual blood stage Plasmodium falciparum ,using a nano luciferase reporter read-out” (2022).

In this assay the test system is Plasmodium falciparum. The assay can be described thus: Primary screen in NF54 nanoGlo assay, in single point, at 2uM, 72h; a lower Z score goes with more inhibition. The conditions noted are these: timepoint 72 hour. It counts as functional, Erythrocyte.

“And” between values parts separate entries of the source, which are not always exact repeats. Equal values may be shown once. Screen size: about 150,000 compounds; about 540 (0.36%) showed an effect of 50% or more. The list shows a part of the results.

For `COc1cc(NC(=O)C2CCOCC2)cc(-n2cnnn2)c1`, the “% Inhibition” value was -5% and the Z score came to 0.94.
For `Cc1cc(N2CC[C@@]3(CCCN(CCCc4ccccc4)C3)C2)nc(N)n1` the same measures were 23% and -3.77.
The corresponding values for `NC(=O)c1cncc(NCc2cccnc2Oc2ccc(F)c(F)c2)n1` are -8% and 1.18.
In the case of `COCC(C)(C)NC(=O)C[C@@H]1C[C@H]1c1ccccc1`, the “% Inhibition” value is -29% and the Z score is recorded as 3.43.
For `CC[C@H]1CN(CCNC(=O)c2c(C)c(=O)[nH]c3ccccc23)CCO1` the same measures were -12% and 1.16.
With `CC1C(c2ccccc2)NC(c2ccccc2)CC1(O)Cc1ccccc1` (stereo not drawn), where the note is “2 µM”, the “% Inhibition” value is -15% and -26%; the Z score was 1.94 and 3.04.
With `C[C@H](c1ccccc1)N(CC(N)=O)Cc1cn2cccnc2n1`, the “% Inhibition” value was -11% and the Z score worked out at 1.42.
The corresponding values for `Cc1cc(C)c(C#N)c(N[C@@H]2C[C@H]3C(=O)N(C)CC(=O)N3C2)n1` are -11% and 2.24.
The corresponding values for `OCC1CCCCN1c1cc(N2CCCC3(C2)OCc2ccccc23)ncn1` (stereo not drawn) are 0% and 0.07.
For `COc1ccc([C@H](C)NC(=O)NCc2cccc(NC(=O)c3ccco3)c2)cc1F` the same measures were -5% and 0.43.
With `Cc1cnc(C(=O)Nc2ccc3oc(C)nc3c2)cn1`, the “% Inhibition” value is -8% and the Z score turned out to be 1.2.
For `Cc1nc(-c2ccccc2)ncc1C(=O)NCCN1CCCC[C@@H]1CO` the same measures were -8% and 1.12.
Consider `Cc1ccc(C(=O)NC[C@H](C)COCc2ccccc2)c(=O)[nH]1`, for which the “% Inhibition” value stood at 1% and the Z score is on record as -0.19.
The corresponding values for `O=C1CN(C(=O)c2ccc([C@H]3CCCOC3)cc2)c2ccccc2N1` are -15% and 1.61.
Consider `Cc1[nH]ccc1C(=O)N1CCCC(C(C)NC(=O)OC(C)(C)C)C1` (stereo not drawn), for which the “% Inhibition” value is given as -11% and the Z score stood at 1.15.
For `O=C1C(=O)N(C2CCN(C(=O)c3cnccn3)CC2)CCN1Cc1ccc(F)cc1` the same measures were -7% and 0.93.
Regarding `COc1cccc(N2CCN(C(=O)c3cc4n(n3)C[C@@H](c3ccc(Cl)cc3)OC4)CC2)c1`, the “% Inhibition” value is on record as -9% and the Z score came to 1.47.
For `COc1ccccc1C(=O)N1CCCCC[C@@H]1CN1CCc2ccccc2C1` the same measures were 4% and -0.62.
Regarding `CCN(C)C(=O)c1ccc(-c2cc3ccccc3n2C)nc1`, the “% Inhibition” value is recorded as -6% and the Z score came to 1.05.
The corresponding values for `COC(=O)c1c(NC(=O)Cc2ccccc2)c2cc(NCC(C)C)cnc2n1CC(C)C` are -12% and 1.42.
The corresponding values for `O=C(CC1CCCC1)Nc1ccccc1OC[C@H]1CCCO1` are -18% and 2.86.
For `CCc1ccnc(CNC(=O)N2CCO[C@H](c3nc(C)cs3)C2)c1` the same measures were -5% and 0.48.
Take `CCOc1ccc(-n2ccn3c(C[C@@H](C)CC(=O)Nc4ccc(C)c(C)c4)nnc3c2=O)cc1`: the “% Inhibition” value is -3% and the Z score worked out at 0.37.
`Cc1ccc(C(=O)N[C@H]2CCN(Cc3cccnc3)C[C@@H]2O)cc1F`: the “% Inhibition” value is reported as -7% and the Z score amounted to 0.97.
For `CCCS(=O)(=O)N1CC(Oc2ccc(-c3noc(COC)n3)cc2)C1` the same measures were -14% and 2.73.
With `CS(=O)(=O)c1cccc(C(=O)Nc2ncnc3sccc23)c1`, the “% Inhibition” value is -26% and the Z score is 3.3.
For `CC(C)c1nnc(CN(C)c2ccccc2F)o1` the same measures were -1% and 0.08.
For `COc1cccc(C2Nc3c(C)cc(C)cc3[C@H]3OCCC[C@@H]23)c1OC` (stereo partly drawn) the same measures were -10% and 1.67.
The corresponding values for `O=C(O)c1cc(Cn2cc(Cl)cn2)cs1` are -2% and 0.37.
Consider `CC(C)CN(Cc1cccnc1)C(=O)c1cc2ncc(CCO)cn2n1`, for which the “% Inhibition” value came out at 2% and the Z score is reported as -0.35.
For `CC[C@@H](c1ccccn1)N(C)Cc1cc(C(C)C)on1` the same measures were -11% and 1.2.
The corresponding values for `Cc1ccc([C@H]2CN(S(C)(=O)=O)C[C@@H]2N(C)C)o1` are -27% and 5.1.
With `NC(=O)c1c(NC(=O)C2CCCCC2)sc2c1CCC2`, the “% Inhibition” value is recorded as -14% and the Z score was 1.74.
For `Cc1nn(CCO)cc1CN(C)Cc1csc(-c2ccccc2)n1`, the “% Inhibition” value is given as -8% and the Z score was determined as 1.23.
For `COC1CCCC(CC(=O)N2CCS(=O)(=O)CC2)C1` (stereo not drawn) the same measures were 3% and -0.57.
For `CCC(CC)(CN(CC(CC)(CC)OC)C(=O)c1cccc(=O)[nH]1)OC` the same measures were -9% and 1.6.
The corresponding values for `CC[C@@H](CO)NCc1ccccc1OC(C)C` are -4% and 0.55.
Regarding `Cc1ccc(-c2ccc(C(=O)NC3(C(N)=O)CCCC3)cc2)nn1`, the “% Inhibition” value is -13% and the Z score came out at 1.31.
The corresponding values for `CCc1ccccc1S(=O)(=O)N1CC2CC1CS2(=O)=O` (stereo not drawn) are -14% and 1.67.
The corresponding values for `C[C@H](NC(=O)NC(c1cccs1)c1cccs1)C(=O)N(C)C` are -1% and 0.11.
For `CN(C)C(=O)[C@@H]1CN(c2ncnc3[nH]ccc23)CCO1` the same measures were -6% and 0.84.
Consider `COc1ccc(CCS(=O)(=O)N2CCO[C@H](c3ccccc3)C2)cc1`, for which the “% Inhibition” value is -7% and the Z score came to 1.08.
With `Cc1ccc2c(c1)c1c(n2C[C@H]2COC(C)(C)O2)C(=O)CCC1`, the “% Inhibition” value was found to be 8% and the Z score is listed as -1.48.
The corresponding values for `Cn1cc(CNC(=O)c2ccc(Nc3ccncc3)cc2)cn1` are 2% and -0.41.
Turning to `Cc1nn(C)c(C(=O)NCCc2cnn[nH]2)c1Cl`, the “% Inhibition” value is recorded as -15% and the Z score was 1.99.
On to `O=c1c2sccc2n(Cc2nc(-c3ccccc3)no2)c(=O)n1CCc1ccccc1`, for which the “% Inhibition” value is -4% and the Z score is given as 0.47.
`O=C(C[C@@H](Cn1cnnn1)c1ccc(Cl)cc1)NCc1ccccc1F`: the “% Inhibition” value is given as -3% and the Z score is reported as 0.47.
For `COc1ccc(CN(CCc2c[nH]c3ccccc23)C(=O)CN(CC(C)C)C(=O)Nc2ccc(F)c(Cl)c2)cc1OC` the same measures were 1% and -0.24.
The corresponding values for `Cc1cc(=O)[nH]c(-n2ncc(C(=O)Nc3ccc4c(c3)OCCO4)c2C)n1` are 9% and -1.14.
As for `COc1ccc(C(=O)CCC(=O)N2CC[C@@](O)(c3ccccc3)C2)cc1`, the “% Inhibition” value was -17% and the Z score was determined as 1.58.
Turning to `CCc1nc(N2CCC(C(=O)NCC(C)C)CC2)c2c(C)scc2n1`, the “% Inhibition” value was -3% and the Z score turned out to be 0.45.
For `CN(CCC(=O)Nc1ccccc1C#N)c1ccccc1` the same measures were -3% and 0.55.
For `c1coc(-c2nc(Cn3ccnc3[C@H]3CCOC3)no2)c1` the same measures were -15% and 3.1.
The corresponding values for `O=C(NCC(=O)N1CCn2nccc2C1)c1ccccc1` are -8% and 0.88.
With `CCOC(=O)CN(CC(F)(F)F)C(=O)c1cc2ccccn2c1`, the “% Inhibition” value stood at 5% and the Z score was -0.58.
The corresponding values for `COCCOCC(=O)N1CCCCC[C@H]1c1nnc(-c2ccccc2)o1` are -13% and 2.4.
In the case of `Cc1cc(C)cc(Nc2c(C(=O)N3CCC(C)CC3)cnc3nc(C)ccc23)c1`, the “% Inhibition” value is -1% and the Z score is reported as 0.22.
The corresponding values for `CC(=O)Nc1sc2c(c1CN1CCN(C)CC1)CCCC2` are -4% and 0.56.
For `CCN1CC2(CCN(c3nccc(NC)n3)CC2)C[C@@H](c2ccccc2)C1=O` the same measures were 6% and -0.88.
The corresponding values for `CCOC1CC(N(C)S(=O)(=O)c2cnn(C)c2)C12CCCC2` (stereo not drawn) are -11% and 0.9.
In the case of `CC(=O)N(C)CC(=O)OC1CCCC(C)C1` (stereo not drawn), the “% Inhibition” value is on record as -11% and the Z score came to 1.54.
For `Cc1nc(O)cc(CNC(=O)CCc2scnc2C)n1` the same measures were -5% and 0.98.
Consider `Cc1c(F)cc(Cl)c2c1CCCN2C(=O)c1ccc(=O)n(C)n1`, for which the “% Inhibition” value came out at 4% and the Z score is reported as -0.54.
For `CCc1nc(N)sc1C(=O)N1CCN(c2ccc(Cl)c(Cl)c2)CC1` the same measures were -23% and 2.66.
As for `CCc1ccc(/N=C(\NCc2ccncc2)NC(=O)c2cccc(Cl)c2)cc1`, the “% Inhibition” value is recorded as -8% and the Z score was 1.35.
For the compound `Cc1cnn(-c2ccncc2NC(=O)[C@H]2CCOC3(CCCC3)C2)c1`, the “% Inhibition” value was -13% and the Z score was 1.65.
For `Cc1c(NC(=O)CN2CCCCC2=O)cccc1-c1nncn1C` the same measures were 5% and -0.87.
For `CC1CN(C(=O)COCC(F)(F)F)CC(C)O1` (stereo not drawn) the same measures were -5% and 0.69.
For `CCn1ccnc1CNCC1CCOC1c1c(C)nn(C)c1C` (stereo not drawn) the same measures were -4% and 0.36.
Turning to `c1cncc(Cn2ncc3[nH]c(-c4ccc([C@@H]5CCCCO5)s4)nc32)c1`, the “% Inhibition” value is -21% and the Z score is 1.88.
The corresponding values for `O=C(Nc1nc(-c2ccc(S(=O)(=O)N3CCCCCC3)cc2)cs1)c1ccccc1Cl` are -10% and 1.89.
Take `O=C1NCCCCCN(Cc2cccc(F)c2)[C@@H]2C[C@@H](C(=O)N3CCc4ccccc4C3)C[C@H]12`: the “% Inhibition” value is recorded as -2% and the Z score turned out to be 0.29.
The corresponding values for `CC(C)C(=O)N1CC(OCc2ccc(Cl)cc2)C1` are 1% and -0.24.
For `CC(C)OC1CCC(NC(=O)N(C)CC2CCCCC2O)CC1` (stereo not drawn) the same measures were -10% and 1.43.
As for `O=C(CCCc1cn[nH]c1)N1C[C@@H]2CC[C@H]1CN(Cc1cscn1)C2`, the “% Inhibition” value was -10% and the Z score was 1.02.
The corresponding values for `CC(NC(=O)C1CC=CCC1C(=O)N1CCOCC1)c1nc[nH]n1` (stereo not drawn) are -15% and 2.35.
For `C[C@]1(O)CCN(C(=O)c2onc3c2CCCC3)C1` the same measures were -8% and 1.1.
The corresponding values for `CCn1cc(S(=O)(=O)N2C[C@H]3CN(S(=O)(=O)c4cccc(F)c4)C[C@@H](C2)O3)cn1` are -2% and 0.41.
In the case of `C[C@@H](CN(C)C(=O)c1ccnnc1)Oc1ccc(Cl)c(Cl)c1`, the “% Inhibition” value is -6% and the Z score is given as 1.1.
The corresponding values for `Cc1nn(C(C)(C)C)cc1C(=O)N1CCC2(CCN(C)CC2)C1` are -8% and 1.64.
The corresponding values for `C[C@H](Nc1ccccn1)C(=O)NC(C)(C)C` are -1% and 0.18.
The corresponding values for `CCCc1nc(CN(C)C(=O)c2ccc3sc(N)nc3c2)no1` are -10% and 1.95.
Regarding `CCc1ncc(CNC(=O)[C@H]2CCN(Cc3ccccc3)C2)o1`, the “% Inhibition” value is on record as -4% and the Z score was determined as 0.68.
The corresponding values for `Cn1nccc1-c1nccc(N2CCC[C@H](O)C2)n1` are 6% and -0.76.

Broadly, the % Inhibition is the relative decrease from the control value, in per cent.
